Results are given in words; binding and its absence hold for the method and conditions named. Some binding calls cover weakened binding; strength is not graded here.
T1: Bcy1, a regulatory subunit of cAMP-dependent protein kinase A (S. cerevisiae) (UniProt P07278)
T1 sequence: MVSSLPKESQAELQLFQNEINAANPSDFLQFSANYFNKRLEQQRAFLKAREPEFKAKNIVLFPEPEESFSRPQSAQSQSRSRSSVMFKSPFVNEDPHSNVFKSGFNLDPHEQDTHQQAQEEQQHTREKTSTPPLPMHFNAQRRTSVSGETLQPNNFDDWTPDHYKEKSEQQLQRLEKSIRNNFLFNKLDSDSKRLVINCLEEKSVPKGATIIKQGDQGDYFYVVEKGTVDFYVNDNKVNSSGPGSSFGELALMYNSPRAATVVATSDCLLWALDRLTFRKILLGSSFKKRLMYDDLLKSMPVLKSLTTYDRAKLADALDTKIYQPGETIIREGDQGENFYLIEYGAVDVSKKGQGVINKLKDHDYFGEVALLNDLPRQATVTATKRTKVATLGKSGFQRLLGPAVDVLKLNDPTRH

T2: Prp2, a DEAD-box RNA-dependent ATPase (S. cerevisiae) (UniProt P20095)
T2 sequence: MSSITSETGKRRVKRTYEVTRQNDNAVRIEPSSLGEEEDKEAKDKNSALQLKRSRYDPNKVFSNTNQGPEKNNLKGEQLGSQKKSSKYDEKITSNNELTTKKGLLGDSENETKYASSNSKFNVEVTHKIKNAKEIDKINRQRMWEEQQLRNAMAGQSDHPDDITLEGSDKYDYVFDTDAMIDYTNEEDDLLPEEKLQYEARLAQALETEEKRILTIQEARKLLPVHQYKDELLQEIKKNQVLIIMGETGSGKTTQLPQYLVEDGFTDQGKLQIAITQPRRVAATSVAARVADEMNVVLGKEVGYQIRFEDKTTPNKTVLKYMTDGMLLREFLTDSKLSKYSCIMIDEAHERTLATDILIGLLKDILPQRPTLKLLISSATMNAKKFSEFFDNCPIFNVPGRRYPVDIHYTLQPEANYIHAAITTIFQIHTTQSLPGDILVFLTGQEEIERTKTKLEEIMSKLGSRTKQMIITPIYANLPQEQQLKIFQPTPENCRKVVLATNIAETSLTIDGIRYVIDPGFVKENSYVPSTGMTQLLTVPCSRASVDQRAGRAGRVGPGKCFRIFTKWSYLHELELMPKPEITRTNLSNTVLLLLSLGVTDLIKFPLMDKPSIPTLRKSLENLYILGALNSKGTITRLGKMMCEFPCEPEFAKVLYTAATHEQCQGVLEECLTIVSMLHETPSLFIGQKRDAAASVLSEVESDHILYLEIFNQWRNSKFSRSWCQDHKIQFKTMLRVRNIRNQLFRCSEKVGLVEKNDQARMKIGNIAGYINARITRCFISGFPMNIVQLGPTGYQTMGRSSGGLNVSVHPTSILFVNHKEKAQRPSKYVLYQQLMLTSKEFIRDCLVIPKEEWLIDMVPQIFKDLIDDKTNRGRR

T3: Ypt53 (S. cerevisiae) (UniProt P36019)
T3 sequence: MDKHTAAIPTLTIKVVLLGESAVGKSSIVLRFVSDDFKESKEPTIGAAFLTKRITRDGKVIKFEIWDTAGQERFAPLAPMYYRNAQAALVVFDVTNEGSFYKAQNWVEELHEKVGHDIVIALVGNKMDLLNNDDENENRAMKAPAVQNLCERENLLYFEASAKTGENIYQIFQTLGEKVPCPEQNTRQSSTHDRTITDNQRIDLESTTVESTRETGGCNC

T4: Pai3, the cytoplasmic inhibitor of yeast saccharopepsin (S. cerevisiae) (UniProt P01094)
T4 sequence: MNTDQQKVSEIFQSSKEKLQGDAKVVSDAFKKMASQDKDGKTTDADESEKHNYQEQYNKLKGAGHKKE

T5: Wwm1 (protein on the microarrays) (S. cerevisiae) (UniProt P43582)
T5 sequence: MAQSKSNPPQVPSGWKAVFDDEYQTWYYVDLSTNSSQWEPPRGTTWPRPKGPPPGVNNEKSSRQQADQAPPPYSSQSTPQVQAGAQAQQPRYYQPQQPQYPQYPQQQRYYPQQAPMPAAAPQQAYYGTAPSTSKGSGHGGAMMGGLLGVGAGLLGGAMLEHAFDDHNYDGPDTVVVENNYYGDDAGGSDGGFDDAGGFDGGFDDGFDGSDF


Experiments:
Assay in all cases: peptide or protein array; 4,088 GST-tagged yeast proteins printed in duplicate on nitrocellulose-coated glass slides; probed with 50 uM biotinylated WW domain fusion protein in PBS on ice (cold room, 4 C) for 90 minutes; detected with Alexa Fluor 647-streptavidin; positive: counts more than three standard deviations above the trimmed mean of the block, in duplicate on two arrays; both purified
[1] = biological target: T1, Bcy1, a regulatory subunit of cAMP-dependent protein kinase A (S. cerevisiae)
[2] = biological target: T2, Prp2, a DEAD-box RNA-dependent ATPase (S. cerevisiae)
[3] = biological target: T3, Ypt53 (S. cerevisiae)
[4] = biological target: T4, Pai3, the cytoplasmic inhibitor of yeast saccharopepsin (S. cerevisiae)
[5] = biological target: T5, Wwm1 (protein on the microarrays) (S. cerevisiae)

Row | Binder | binding [1] | binding [2] | binding [3] | binding [4] | binding [5]
1 | TGLPTPWTVRYSKSKKREYFFNPETKHSQWEEPEG (domain or fragment, UniProt P22696 9-43, biotin (NHS-LC-LC-biotin, amine-reactive)) [WW domain from Ess1] | binds | binds | binds | – | –
2 | PQVPSGWKAVFDDEYQTWYYVDLSTNSSQWEPPRG (domain or fragment, UniProt P43582 9-43, biotin (NHS-LC-LC-biotin, amine-reactive)) [Wwm1 WW domain probe] | – | – | – | binds | no binding (tested: 50 μM)
